Assay results from patent US20250092143A1 (UNIVERSITY OF SOUTHERN CALIFORNIA, published 2025).

Legend:
[1] = target: T1, PD-L2 on IFN-γ stimulated BT-20 cells (human, UniProt Q9BQ51 20-273); assay: flow cytometry on BT-20 cells, anti-HA detection; weaker than GEMINI-Exos
T1 construct: whole, on cells; BT-20 cells also carry PD-L1 and EGFR; also called PD-L2^+ BT-20 cells
T1 sequence (looked up): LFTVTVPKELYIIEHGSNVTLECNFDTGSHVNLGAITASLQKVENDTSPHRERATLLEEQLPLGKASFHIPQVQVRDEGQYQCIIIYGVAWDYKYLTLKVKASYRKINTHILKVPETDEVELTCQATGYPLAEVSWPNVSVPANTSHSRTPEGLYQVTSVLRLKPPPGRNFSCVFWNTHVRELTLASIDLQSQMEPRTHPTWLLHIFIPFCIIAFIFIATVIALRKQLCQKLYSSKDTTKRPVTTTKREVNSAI

[2] = target: T2, PD-L1 on IFN-γ stimulated BT-20 cells (human, UniProt Q9NZQ7); assay: as above
T2 construct: whole, on cells; BT-20 cells also carry PD-L2 and EGFR; also called PD-L1^+ BT-20 cells; PD-L1-expressing BT-20 cells
T2 sequence (Q9NZQ7 19-290): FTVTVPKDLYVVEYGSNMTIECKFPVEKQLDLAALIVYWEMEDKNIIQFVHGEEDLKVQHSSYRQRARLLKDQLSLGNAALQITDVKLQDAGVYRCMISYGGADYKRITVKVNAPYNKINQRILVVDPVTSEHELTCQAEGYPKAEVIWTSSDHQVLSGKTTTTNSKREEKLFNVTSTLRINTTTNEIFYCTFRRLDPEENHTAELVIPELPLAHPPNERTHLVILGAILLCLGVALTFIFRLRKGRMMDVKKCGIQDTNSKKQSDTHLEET

PD-L2-hFc = target: T3, PD-L2-hFc (human, UniProt Q9BQ51 20-220, limits assumed); assay: ELISA; exosomes coated, PD-L2-hFc added, anti-human IgG-HRP detection; reference for GEMINI-Exos
T3 construct: Bought from PeproTech; also called PD-L2-Fc; not shown: human Fc (hFc) of the bought reagent
T3 sequence (looked up): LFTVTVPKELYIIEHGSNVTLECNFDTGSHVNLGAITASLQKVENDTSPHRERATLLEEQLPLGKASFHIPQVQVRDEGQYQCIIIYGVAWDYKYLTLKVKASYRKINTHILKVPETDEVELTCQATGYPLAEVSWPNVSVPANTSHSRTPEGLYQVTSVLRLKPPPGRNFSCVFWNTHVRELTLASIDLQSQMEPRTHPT
Experimental: (§1) ELISA analysis of binding of engineered exosomes to ligands and receptors. […] High-binding 96 well plates (Greiner Bio-One, Monroe, NC) were coated with various concentrations of exosomes overnight at room temperature. Following extensive washing with PBST, wells were blocked with PBS containing 1% BSA for 2 hours at room temperature, followed by extensive washing with PBST. Corresponding ligands or receptors ([…]; PD-L1-hFc and PD-L2-hFc from PeproTech, Inc. and OX40-hFc from BioLegend) were added and incubated for 2 hours at room temperature, followed by extensive washing with PBST. Goat anti-human IgG-HRP was subsequently added for 1-hour incubation at room temperature, followed by extensive washing. QuantaBlu fluorogenic peroxidase substrate (Thermo Fisher Scientific, MA) was then added.

OX40-hFc = target: T4, OX40-hFc (human, UniProt P43489 29-214); assay: ELISA; exosomes coated, OX40-hFc added, anti-human IgG-HRP detection; reference for GEMINI-Exos
T4 construct: Bought from BioLegend; also called OX40-Fc; biotinylated OX40-hFc; not shown: human Fc (hFc) of the bought reagent
T4 sequence (looked up): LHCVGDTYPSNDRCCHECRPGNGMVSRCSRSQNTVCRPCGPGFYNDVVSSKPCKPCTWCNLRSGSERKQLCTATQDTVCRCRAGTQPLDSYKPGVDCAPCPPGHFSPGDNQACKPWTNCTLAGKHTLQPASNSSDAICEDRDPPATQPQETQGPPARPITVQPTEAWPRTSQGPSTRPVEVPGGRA
Experimental: as §1

Measured: binding result

B1: PD-1-OX40L-Exos (other)
chain: YPYDVPDYAGAQPARSF[about 150 residues not shown]VGVVGGLLGSLVLLVWVLAVICSRAARGTIGARRTGQPLKEDPSAVPVFSVDYGELDFQWREKTPEPPVPCVPEQTEYATIVFPSGMGTSSPARRGSADGPRSAQPLRPEDGHCSWPLASGGGGSPVKGGTKCIKYLLFGFNFIFWLAGIAVLAIGLWLRFDSQTKSIFEQETNNNNSSFYTGVYILIGAGALMMLVGFLGCCGAVQESQCMLGLFFGFLLVIFAIEIAAAIWGYSHKDEVIKEVQEFYKDTYNKLKTKDEPQRETLKAIHYALNCCGLAGGVEQFISDICPKKDVLETFTVKSCPDAIKEVFDNKFHIIGAVGIGIAVVMIFGMIFSMILCCAIRRNREMVGGGGSGGGGSVDERVQPLEENVGNAARPRFERNKLLLVASVIQGLGLLLCFTYICLHFSALQVSHRYPRIQSIKVQFTEYKKEKGFILTSQKEDEIMKVQNNSVIINCDGFYLISLKGYFSQEVNISLHYQKDEEPLFQLKKVRSVNSLMVASLTYKDKVYLNVTTDNTSLDDFHVNGGELILIHQNPGEFCVLHHHHHH
notes: Engineered exosome from Expi293F cells transfected with pDisplay-PD-1-CD9-OX40L; also called exosomes displaying the HA-PD-1-CD9-OX40L-6×His fusion protein; PD-1-CD9-OX40L fusion
binds: all assays above
